# Source: PubChem BioAssay AID1347165 (National Center for Advancing Translational Sciences (NCATS), 2019)
# Out of some 220,000 compounds screened, about 5,700 (2.6%) were called active. Inconclusive means that the source gave no clear call. Such entries were picked first, then a sample of the others. Calls come from the whole dose curve; as a rule, active = well fitted inhibition curve with a large enough effect; inconclusive = small, poorly fitted or top-dose-only effect; inactive = no such curve, though single readings can be large or run the other way. Potencies beside an inconclusive call are fits to weak or partial responses and may not hold up.
# Target: Lysine-specific demethylase 5B (Homo sapiens) (UniProt Q9UGL1)
# Sequence of UniProt Q9UGL1 (Q9UGL1 whole entry, looked up): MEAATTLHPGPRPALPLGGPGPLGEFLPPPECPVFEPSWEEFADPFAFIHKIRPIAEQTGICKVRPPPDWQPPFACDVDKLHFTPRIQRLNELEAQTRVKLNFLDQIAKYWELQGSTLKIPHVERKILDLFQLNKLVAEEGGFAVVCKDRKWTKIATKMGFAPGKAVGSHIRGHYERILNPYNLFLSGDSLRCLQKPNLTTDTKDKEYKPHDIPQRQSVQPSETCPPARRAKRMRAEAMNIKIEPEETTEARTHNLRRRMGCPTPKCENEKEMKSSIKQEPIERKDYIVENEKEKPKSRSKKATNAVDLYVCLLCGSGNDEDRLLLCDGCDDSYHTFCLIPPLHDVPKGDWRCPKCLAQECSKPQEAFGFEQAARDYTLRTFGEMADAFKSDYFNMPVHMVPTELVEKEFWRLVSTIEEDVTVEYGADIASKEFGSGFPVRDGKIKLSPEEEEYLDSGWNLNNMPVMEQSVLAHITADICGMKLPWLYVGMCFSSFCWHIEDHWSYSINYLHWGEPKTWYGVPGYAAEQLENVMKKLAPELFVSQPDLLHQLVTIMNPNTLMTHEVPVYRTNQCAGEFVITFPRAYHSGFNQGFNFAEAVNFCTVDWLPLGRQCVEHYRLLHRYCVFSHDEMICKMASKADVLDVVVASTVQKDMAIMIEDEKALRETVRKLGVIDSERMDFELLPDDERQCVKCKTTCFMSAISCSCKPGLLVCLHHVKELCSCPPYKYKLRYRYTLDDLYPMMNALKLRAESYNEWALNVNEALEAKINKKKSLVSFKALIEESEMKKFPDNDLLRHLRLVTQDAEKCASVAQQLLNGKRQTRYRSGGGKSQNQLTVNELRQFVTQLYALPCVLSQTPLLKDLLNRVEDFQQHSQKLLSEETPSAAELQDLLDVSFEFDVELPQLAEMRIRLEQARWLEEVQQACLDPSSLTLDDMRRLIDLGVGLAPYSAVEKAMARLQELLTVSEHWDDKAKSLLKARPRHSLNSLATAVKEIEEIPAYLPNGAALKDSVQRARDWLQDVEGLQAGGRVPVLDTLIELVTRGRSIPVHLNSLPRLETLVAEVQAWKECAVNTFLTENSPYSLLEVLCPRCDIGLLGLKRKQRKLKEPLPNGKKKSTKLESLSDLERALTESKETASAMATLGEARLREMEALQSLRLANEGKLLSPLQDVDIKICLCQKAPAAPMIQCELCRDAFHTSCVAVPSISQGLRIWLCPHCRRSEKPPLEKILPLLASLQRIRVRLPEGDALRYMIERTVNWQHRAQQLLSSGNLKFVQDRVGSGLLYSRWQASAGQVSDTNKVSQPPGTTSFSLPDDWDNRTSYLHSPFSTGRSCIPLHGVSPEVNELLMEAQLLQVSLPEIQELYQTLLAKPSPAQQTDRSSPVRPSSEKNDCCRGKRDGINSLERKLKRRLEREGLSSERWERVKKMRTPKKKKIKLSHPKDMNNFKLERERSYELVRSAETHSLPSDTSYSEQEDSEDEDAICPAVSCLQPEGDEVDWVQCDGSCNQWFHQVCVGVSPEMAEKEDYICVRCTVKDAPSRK
# Assay: Primary screen for KDM5B Histone Demethylases FDH-coupled qHTS; note: nearly all actives have a fitted effect of over 70% in size; for activity change, negative = inhibition: 0% is about no effect
# Conditions: FDH-coupled NADH fluorescence (FDH is formaldehyde dehydrogenase); activity change, negative = inhibition: at 57.7 µM (top of the series) unless noted
# Procedure, shortened: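 qHTS format, multiple compound concentrations. Buffer 50 mM HEPES pH 7.5/0.01% Tween-20; 200 nM KDM5BΔAP final; 10 min compound preincubation; substrate-mix levels 12.5 µM peptide, 25 µM α-KG, 0.25 mM NAD⁺; 30 min RT; ΔRFU.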
# Potency is the fitted concentration of half-maximal effect; tags give direction and shape of the fitted curve.
SMILES,Potency,"activity change, negative = inhibition"
Cn1cnc2cc(-c3cccc4[nH]ncc34)cc(C(=O)NCc3cccnc3)c21,active: 39.8 µM,–
COc1cccc(CN(C)C(=O)c2cc3cc(Br)ccc3[nH]2)c1,–,inactive: 6.26%
CC1(COc2cccnc2)COc2ccc(C(=O)NC3CCC(O)CC3)cc2N1 (stereo not drawn),active: 35.5 µM,–
COC(=O)Cn1c(=NC(=O)c2ccc3c(c2)OCCO3)sc2ccccc21,"inconclusive: 1.58 µM [inhibitor, full curve, poor fit]",–
O=C(c1ccncc1)N1CC(Oc2ccccc2-c2nc(-c3cnccn3)no2)C1,–,inactive: 13.9%
Cc1ccn2c(Nc3c(C)cccc3C)c(-c3ccsc3)nc2c1,"inconclusive: 31.6 µM [inhibitor, partial curve, poor fit]",–
CN1CCCC2(C1)CN(C)c1ccc(C(=O)NCCc3ccccc3)cc12 (stereo not drawn),active: 31.6 µM,–
CCOC(=O)CN(C(=O)COc1nc(C)cc(C)c1C#N)c1ccc(F)cc1,"inconclusive: 20 µM [inhibitor, partial curve, poor fit]",–
Cc1cnc(C(=O)NCC2CCCCC(=O)N2)cn1 (stereo not drawn),"inconclusive: 20 µM [inhibitor, partial curve, poor fit]",–
C[C@@H]1C(=O)O[C@H]2[C@H]1CC[C@@]1(C)Cc3sc(NC(=O)NC4CCCCC4)nc3[C@@H](C)[C@H]21,"inconclusive: 28.2 µM [inhibitor, single point]",–
COc1ccc(C(=O)N[C@@H]2CCC[C@@H]2C(=O)N2CCN(c3ccccn3)CC2)cc1,"inconclusive: 39.8 µM [inhibitor, single point]",–
Cc1ccc(NC(=O)c2cc(C3CC3)nc3ccccc23)c(C)c1,–,inactive: 2.59%
O=C(NC1CCCCC1)O[C@@H]1CO[C@H]2[C@@H]1OC[C@@H]2Nc1nccc(-c2cccs2)n1,active: 31.6 µM,–
C(=C\c1ccco1)/c1ccc2ccccc2n1,"inconclusive: 28.2 µM [inhibitor, partial curve, poor fit]",–
CCOC(=O)c1c(C)sc2c1OC(N)=C(C#N)C21C(=O)N(Cc2ccccc2F)c2ccccc21 (stereo not drawn),–,inactive: -5.76%
CCN(CC)C(=O)c1sc2c(c1C)c(=O)n(-c1ccccc1)c(=O)n2Cc1c(C)cc(C)cc1C,–,inactive: 7.19%
c1ccc(-c2nc(C3CC3)no2)c(OC2CN(Cc3ccncc3)C2)c1,"inconclusive: 15.8 µM [inhibitor, partial curve, poor fit]",–
CCN(CC)CCn1c(=O)n(-c2ccc(Cl)cc2)c(=O)c2c3c(sc21)CN(C)CC3,"inconclusive: 25.1 µM [inhibitor, partial curve, poor fit]",–
CCC1(CC)Cc2ccccc2C(NC(=O)NC2CCCC2)=C1C#N,–,inactive: 16.7%
COc1cc2[nH]c(C(=O)NCC3CCCO3)cc2c(OC)c1OC (stereo not drawn),"inconclusive: 25.1 µM [inhibitor, partial curve, poor fit]",–
O=C(Cc1cccc(F)c1)NCC(=O)N1CCCCCCNC(=O)CC1c1ccccc1 (stereo not drawn),–,inactive: -9.9%
CC1=C(C)CC(C(=O)NC(c2ccccc2)c2ccccc2)C(C(=O)O)C1 (stereo not drawn),–,inactive: -5.65%

SMILES,Potency,"activity change, negative = inhibition"
Oc1ccccc1-c1cc(-c2cccnc2)c2cncn2c1,"inconclusive: 35.5 µM [inhibitor, partial curve, poor fit]",–
C/C(=N/NC(=S)NC(C)C)c1ccncc1,–,inactive: -0.463%
Cn1cccc1CN1CC(N2CCc3ccccc32)C1,"inconclusive: 50.1 µM [inhibitor, partial curve]",–
COc1ccc(Cl)cc1NC(=O)NCCn1c(=O)oc2ccc(C)cc21,–,inconclusive: -35.8% [inhibitor]
CCC1COCCN1Cc1cn(-c2ccccc2)nc1-c1ccc(OC)cc1F (stereo not drawn),"inconclusive: 28.2 µM [inhibitor, single point]",–
CCn1cc2c3c(cccc31)CN(C(=O)COc1ccc(F)cc1)CC2,"inconclusive: 28.2 µM [inhibitor, partial curve, poor fit]",–
CNC(=O)[C@H]1C[C@H](Oc2ccccc2)CN1C(=O)Nc1cccc(F)c1,–,inactive: 26.2%
CCOC(=O)c1cc2c(=O)n3ccccc3nc2n(CC(C)C)c1=NC(=O)COc1ccc(Cl)cc1,"inconclusive: 25.1 µM [inhibitor, partial curve, poor fit]",–
COCCNC(=O)C(NC(=O)c1cccc(OC)c1)C1CCN(C(=O)c2ccc(C)cc2)CC1 (stereo not drawn),"inconclusive: 31.6 µM [inhibitor, single point]",–
CCC(CC)NC(=O)COC(=O)c1cc(-c2ccc(C)o2)nc2ccccc12,"inconclusive: 31.6 µM [inhibitor, partial curve, poor fit]",–
CCOC(=O)CCCNC(=O)COC(=O)c1cc(-c2cccs2)nc2ccccc12,"inconclusive: 17.8 µM [inhibitor, partial curve, poor fit]",–
CCc1noc(-c2cccn3c(CNC(=O)c4ccc5ccccc5n4)nnc23)n1,active: 20 µM,–
Oc1ccc(Cl)cc1C=NCc1ccc(Cl)cc1,–,inactive: 9.48%
CC(C)Oc1ccccc1/C=C(/C#N)C(=O)Nc1cccc(C(F)(F)F)c1,"inconclusive: 28.2 µM [inhibitor, partial curve, poor fit]",–
CC(Cc1c[nH]c2ccccc12)C(=O)Nc1ccc(F)cc1 (stereo not drawn),–,inactive: 10.7%
O=c1[nH]c(-c2ccccc2)nc2c1CCN(S(=O)(=O)c1ccc3c(c1)CCC3)C2,"inconclusive: 20 µM [inhibitor, single point]",–
c1ccc(CCN2CCNc3cc(NCCN4CCOCC4)ncc3C2)cc1,"inconclusive: 35.5 µM [inhibitor, partial curve, poor fit]",–
CNc1nc(C(=O)NCc2ccc3[nH]c(-c4ccc(F)cc4)c(C)c3c2)cs1,active: 5.62 µM,–
COc1cccc(C2=CC(c3ccccc3F)n3ncc(C(=O)Nc4ccc(C)cc4)c3N2)c1 (stereo not drawn),"inconclusive: 15.8 µM [inhibitor, partial curve, poor fit]",–
O=C(CCc1cc(Cl)no1)N(CCS(=O)(=O)N1CCCCC1)Cc1cccnc1,"inconclusive: 10 µM [inhibitor, partial curve, poor fit]",–
O=C(NCc1ccc(Cl)cc1)c1ccc(CN2C(=O)NC3(CCOCC3)C2=O)cc1,–,inactive: 7.21%
